# From the supplement of paper PMC8728848
# The other results are listed elsewhere or left out.
# B1: SEX4 (Arabidopsis thaliana), Q944A8 (protein)
# chain: TQAMGAVLTYRHELGMNYNFIRPDLIVGSCLQTPEDVDKLRKIGVKTIFCLQQDPDLEYFGVDISSIQAYAKKYSDIQHIRCEIRDFDAFDLRMRLPAVVGTLYKAVKRNGGVTYVHCTAGMGRAPAVALTYMFWVQGYKLMEAHKLLMSKRSCFPKLDAIRNATIDILTGLKRKTVTLTLKDKGFSRVEISGLDIGWGQRIPLTLGKGTGFWILKRELPEGQFEYKYIIDGEWTHNEAEPFIGPNKDGHTNNYAKVVDDPTSVDGTTRERLSSEDPELLEEERSKLIQFLETCSEAEV
# What was measured:
# Assay in all cases: glycan array binding signal (z-score within array); higher = stronger binding
# Details in all cases: glycan notation: IUPAC condensed, linker removed
# [1] = target: Fuc(a1-2)[Gal(a1-3)]Gal(b1-4)GlcNAc(b1-3)GalNAc
# Method in brief: (§1)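 Glycan array data came from 3228 arrays in the Consortium for Functional Glycomics database, and only arrays with an available protein sequence were kept. Glycan names were put into IUPAC-condensed notation, and columns mapping to the same glycan were averaged. The binding signal is a within-array Z-score, averaged across arrays of one protein sequence run at different concentrations or buffers and across linkers. A negative Z-score can be read as non-binding.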
# [2] = target: Fuc(a1-2)[Gal(a1-3)]Gal(b1-4)[Fuc(a1-3)]Glc
# Method in brief: as §1
# [3] = target: Fuc(a1-2)[Gal(a1-3)]Gal(b1-4)[Fuc(a1-3)]GlcNAc
# Method in brief: as §1
# [4] = target: Fuc(a1-2)[Gal(a1-3)]Gal(b1-4)[Fuc(a1-3)]GlcNAc(b1-3)GalNAc
# Method in brief: as §1
# [5] = target: Fuc(a1-2)[Gal(a1-4)]Gal(b1-4)GlcNAc
# Method in brief: as §1
# [6] = target: Fuc(a1-2)[GalNAc(a1-3)]Gal
# Method in brief: as §1
# [7] = target: Fuc(a1-2)[GalNAc(a1-3)]Gal(b1-3)GalNAc(a1-3)[Fuc(a1-2)]Gal(b1-4)GlcNAc
# Method in brief: as §1
# [8] = target: Fuc(a1-2)[GalNAc(a1-3)]Gal(b1-3)GlcNAc
# Method in brief: as §1
# [9] = target: Fuc(a1-2)[GalNAc(a1-3)]Gal(b1-3)GlcNAc(b1-2)Man(a1-3)[Fuc(a1-2)[GalNAc(a1-3)]Gal(b1-3)GlcNAc(b1-2)Man(a1-6)]Man(b1-4)GlcNAc(b1-4)GlcNAc
# Method in brief: as §1
# [10] = target: Fuc(a1-2)[GalNAc(a1-3)]Gal(b1-3)GlcNAc(b1-3)GalNAc
# Method in brief: as §1
# [11] = target: Fuc(a1-2)[GalNAc(a1-3)]Gal(b1-4)Glc
# Method in brief: as §1
# [12] = target: Fuc(a1-2)[GalNAc(a1-3)]Gal(b1-4)GlcNAc
# Method in brief: as §1
# [13] = target: Fuc(a1-2)[GalNAc(a1-3)]Gal(b1-4)GlcNAc(b1-2)Man(a1-3)[Fuc(a1-2)[GalNAc(a1-3)]Gal(b1-4)GlcNAc(b1-2)Man(a1-6)]Man(b1-4)GlcNAc(b1-4)GlcNAc
# Method in brief: as §1
# [14] = target: Fuc(a1-2)[GalNAc(a1-3)]Gal(b1-4)GlcNAc(b1-3)Gal(b1-4)GlcNAc
# Method in brief: as §1
# [15] = target: Fuc(a1-2)[GalNAc(a1-3)]Gal(b1-4)GlcNAc(b1-3)Gal(b1-4)GlcNAc(b1-3)Gal(b1-4)GlcNAc
# Method in brief: as §1
# [16] = target: Fuc(a1-2)[GalNAc(a1-3)]Gal(b1-4)GlcNAc(b1-3)GalNAc
# Method in brief: as §1
# [17] = target: Fuc(a1-2)[GalNAc(a1-3)]Gal(b1-4)[Fuc(a1-3)]GlcNAc
# Method in brief: as §1
# [18] = target: Fuc(a1-2)[GalNAc(a1-3)]Gal(b1-4)[Fuc(a1-3)]GlcNAc(b1-3)GalNAc
# Method in brief: as §1
# [19] = target: Fuc(a1-2)[GalNAc(a1-4)]Gal(b1-4)GlcNAc
# Method in brief: as §1
# [20] = target: Fuc(a1-2)[GalNAc(b1-3)]Gal
# Method in brief: as §1
# Fuc(a1-3)GlcNAc = target: Fuc(a1-3)GlcNAc
# Method in brief: as §1
# [21] = target: Fuc(a1-3)[Gal(b1-4)]Glc6S
# Method in brief: as §1
# [22] = target: Fuc(a1-3)[Gal(b1-4)]GlcNAc
# Method in brief: as §1
# [23] = target: Fuc(a1-3)[Gal(b1-4)]GlcNAc(b1-2)Man(a1-3)[Fuc(a1-3)[Gal(b1-4)]GlcNAc(b1-2)Man(a1-6)]Man(b1-4)GlcNAc(b1-4)GlcNAc
# Method in brief: as §1
# [24] = target: Fuc(a1-3)[Gal(b1-4)]GlcNAc(b1-2)Man(a1-3)[Fuc(a1-3)[Gal(b1-4)]GlcNAc(b1-2)Man(a1-6)]Man(b1-4)GlcNAc(b1-4)[Fuc(a1-6)]GlcNAc
# Method in brief: as §1
# [25] = target: Fuc(a1-3)[Gal(b1-4)]GlcNAc(b1-3)Gal(b1-3)[Fuc(a1-4)]GlcNAc
# Method in brief: as §1
# [26] = target: Fuc(a1-3)[Gal(b1-4)]GlcNAc(b1-3)GalNAc
# Method in brief: as §1
# [27] = target: Fuc(a1-3)[Gal(b1-4)]GlcNAc(b1-4)Gal(b1-4)[Fuc(a1-3)]GlcNAc
# Method in brief: as §1
# [28] = target: Fuc(a1-3)[Gal(b1-4)]GlcNAc(b1-4)Gal(b1-4)[Fuc(a1-3)]GlcNAc(b1-4)Gal(b1-4)[Fuc(a1-3)]GlcNAc
# Method in brief: as §1
# [29] = target: Fuc(a1-3)[Gal(b1-4)]GlcNAc(b1-6)[Gal(b1-3)GlcNAc(b1-3)]Gal(b1-4)Glc
# Method in brief: as §1
# [30] = target: Fuc(a1-3)[Gal(b1-4)]GlcNAc6S
# Method in brief: as §1
# [31] = target: Fuc(a1-3)[Gal3S(b1-4)]GlcNAc
# Method in brief: as §1
# [32] = target: Fuc(a1-3)[Gal3S(b1-4)]GlcNAc6S
# Method in brief: as §1
# [33] = target: Fuc(a1-3)[GalNAc(b1-4)]GlcNAc
# Method in brief: as §1
# Fuc(a1-4)GlcNAc = target: Fuc(a1-4)GlcNAc
# Method in brief: as §1
# Fuc(b1-3)GlcNAc = target: Fuc(b1-3)GlcNAc
# Method in brief: as §1
# Gal(a1-2)Gal = target: Gal(a1-2)Gal
# Method in brief: as §1
# Gal(a1-3)Gal = target: Gal(a1-3)Gal
# Method in brief: as §1
# Gal(a1-3)Gal(b1-3)GlcNAc = target: Gal(a1-3)Gal(b1-3)GlcNAc
# Method in brief: as §1
# [34] = target: Gal(a1-3)Gal(b1-3)GlcNAc(b1-2)Man(a1-3)[Gal(a1-3)Gal(b1-3)GlcNAc(b1-2)Man(a1-6)]Man(b1-4)GlcNAc(b1-4)GlcNAc
# Method in brief: as §1
# [35] = target: Gal(a1-3)Gal(b1-3)GlcNAc(b1-3)GalNAc
# Method in brief: as §1
# [36] = target: Gal(a1-3)Gal(b1-3)[Fuc(a1-4)]GlcNAc(b1-2)Man(a1-3)[Gal(a1-3)Gal(b1-3)[Fuc(a1-4)]GlcNAc(b1-2)Man(a1-6)]Man(b1-4)GlcNAc(b1-4)GlcNAc
# Method in brief: as §1
# Gal(a1-3)Gal(b1-4)Glc = target: Gal(a1-3)Gal(b1-4)Glc
# Method in brief: as §1
# Gal(a1-3)Gal(b1-4)GlcNAc = target: Gal(a1-3)Gal(b1-4)GlcNAc
# Method in brief: as §1
# [37] = target: Gal(a1-3)Gal(b1-4)GlcNAc(b1-3)GalNAc
# Method in brief: as §1
binder,measurement,setting,value
B1,glycan array binding signal (z-score),[1],-0.37
same,glycan array binding signal (z-score),[2],-0.413
same,glycan array binding signal (z-score),[3],0.041
same,glycan array binding signal (z-score),[4],0.171
same,glycan array binding signal (z-score),[5],-0.434
same,glycan array binding signal (z-score),[6],-0.519
same,glycan array binding signal (z-score),[7],0.238
same,glycan array binding signal (z-score),[8],-0.556
same,glycan array binding signal (z-score),[9],1.05
same,glycan array binding signal (z-score),[10],1.92
same,glycan array binding signal (z-score),[11],-0.33
same,glycan array binding signal (z-score),[12],-0.274
same,glycan array binding signal (z-score),[13],-0.168
same,glycan array binding signal (z-score),[14],0.082
same,glycan array binding signal (z-score),[15],1.55
same,glycan array binding signal (z-score),[16],-0.456
same,glycan array binding signal (z-score),[17],-0.053
same,glycan array binding signal (z-score),[18],1.24
same,glycan array binding signal (z-score),[19],-0.536
same,glycan array binding signal (z-score),[20],-0.555
same,glycan array binding signal (z-score),Fuc(a1-3)GlcNAc,-0.55
same,glycan array binding signal (z-score),[21],-0.29
same,glycan array binding signal (z-score),[22],-0.452
same,glycan array binding signal (z-score),[23],-0.262
same,glycan array binding signal (z-score),[24],0.038
same,glycan array binding signal (z-score),[25],0.278
same,glycan array binding signal (z-score),[26],2.34
same,glycan array binding signal (z-score),[27],-0.095
same,glycan array binding signal (z-score),[28],-0.11
same,glycan array binding signal (z-score),[29],-0.48
same,glycan array binding signal (z-score),[30],0.148
same,glycan array binding signal (z-score),[31],-0.363
same,glycan array binding signal (z-score),[32],0.767
same,glycan array binding signal (z-score),[33],-0.285
same,glycan array binding signal (z-score),Fuc(a1-4)GlcNAc,-0.535
same,glycan array binding signal (z-score),Fuc(b1-3)GlcNAc,-0.464
same,glycan array binding signal (z-score),Gal(a1-2)Gal,-0.353
same,glycan array binding signal (z-score),Gal(a1-3)Gal,0.074
same,glycan array binding signal (z-score),Gal(a1-3)Gal(b1-3)GlcNAc,-0.21
same,glycan array binding signal (z-score),[34],0.16
same,glycan array binding signal (z-score),[35],1.38
same,glycan array binding signal (z-score),[36],1.1
same,glycan array binding signal (z-score),Gal(a1-3)Gal(b1-4)Glc,-0.237
same,glycan array binding signal (z-score),Gal(a1-3)Gal(b1-4)GlcNAc,0.108
same,glycan array binding signal (z-score),[37],-0.148
